# In PubChem BioAssay AID504339 (National Center for Advancing Translational Sciences (NCATS), 2011):
# Out of some 390,000 compounds screened, about 17,000 (4.4%) were called active. Inconclusive results, whose numbers are uncertain, are shown with a selection of clear calls. The call rests on the fitted dose curve; in most records, active means well fitted inhibition curve with a large enough effect; inconclusive means small, poorly fitted or top-dose-only effect; inactive means no such curve, though single readings can be large or run the other way. Potencies of inconclusive entries are doubtful fits and often do not repeat.
# Target: Lysine-specific demethylase 4A (Homo sapiens) (UniProt O75164)
# Chain of UniProt O75164 (O75164 whole entry, looked up, the tested form may be a part): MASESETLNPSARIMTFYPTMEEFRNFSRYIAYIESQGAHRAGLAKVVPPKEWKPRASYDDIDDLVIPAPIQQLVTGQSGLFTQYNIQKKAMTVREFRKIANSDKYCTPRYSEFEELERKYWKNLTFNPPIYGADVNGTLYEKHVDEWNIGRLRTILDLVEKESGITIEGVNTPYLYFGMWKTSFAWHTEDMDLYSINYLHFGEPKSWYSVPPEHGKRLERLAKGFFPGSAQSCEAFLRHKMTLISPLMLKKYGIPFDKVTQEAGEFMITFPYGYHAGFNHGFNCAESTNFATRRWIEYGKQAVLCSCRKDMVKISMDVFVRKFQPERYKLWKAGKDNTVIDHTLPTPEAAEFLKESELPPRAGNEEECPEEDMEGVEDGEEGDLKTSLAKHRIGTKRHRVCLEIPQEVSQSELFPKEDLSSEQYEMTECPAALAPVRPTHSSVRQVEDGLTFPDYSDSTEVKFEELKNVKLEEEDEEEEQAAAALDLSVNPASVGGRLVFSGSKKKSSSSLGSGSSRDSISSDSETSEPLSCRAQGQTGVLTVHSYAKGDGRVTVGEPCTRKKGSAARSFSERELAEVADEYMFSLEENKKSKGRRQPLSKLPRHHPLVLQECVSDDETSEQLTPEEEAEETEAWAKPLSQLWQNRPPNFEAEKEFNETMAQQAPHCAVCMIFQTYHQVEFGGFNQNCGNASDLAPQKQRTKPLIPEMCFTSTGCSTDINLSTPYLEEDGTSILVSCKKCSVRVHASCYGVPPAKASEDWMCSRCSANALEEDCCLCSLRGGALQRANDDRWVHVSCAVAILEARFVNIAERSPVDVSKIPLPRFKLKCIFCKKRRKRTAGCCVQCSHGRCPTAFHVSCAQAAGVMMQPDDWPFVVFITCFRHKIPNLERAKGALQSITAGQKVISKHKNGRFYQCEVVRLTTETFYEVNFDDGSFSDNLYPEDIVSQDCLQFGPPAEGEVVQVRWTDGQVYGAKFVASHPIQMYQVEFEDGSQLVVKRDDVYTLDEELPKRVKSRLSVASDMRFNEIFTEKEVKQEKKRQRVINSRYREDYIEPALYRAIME
# Assay: qHTS Assay for Inhibitors of JMJD2A-Tudor Domain; further: nearly all actives have a fitted effect of over 50% in size
# Conditions: AlphaScreen JMJD2A-Tudor / H3K4me3 peptide binding; activity change, negative = inhibition: at 114 µM (top of the series)
# On the % scale 0 is the no-effect control and ±100 the full control effect; potency means the concentration at half of the fitted maximal effect; tags describe the fitted curve by direction and shape.
SMILES,"activity change, negative = inhibition",Potency
Cc1ccc(S(=O)(=O)Nc2ccc(NS(=O)(=O)c3ccc(C)cc3)c3ncccc23)cc1,inactive: -17.9%,
Cc1cc(=O)oc2cc(OCC(=O)N3c4ccccc4NC(=O)C3(C)C)ccc12,,"inconclusive: 14.1 µM [inhibitor, partial curve]"
Cc1ccc2oc(-c3cccc(NC(=S)NC(=O)/C=C/c4ccco4)c3)nc2c1,,"inconclusive: 63.1 µM [inhibitor, partial curve, poor fit]"
COc1ccc(-c2n[nH]c(=S)n2/N=C/c2cccn2C)cc1,,active: 6.31 µM
CC(C)(C)C(=O)Nc1ccccc1C(=O)NCCCn1ccnc1,,active: 50.1 µM
CCOc1cc(/C=C2/SC(=S)N(Cc3ccccc3)C2=O)ccc1O,,active: 50.1 µM
CNC(=S)N(C)/N=C1/C(=O)N(Cc2c(Cl)cccc2Cl)c2ccccc21,,active: 5.01 µM
Cc1ccc(NC2CCCN(C(=O)c3ccc(F)cc3)C2)cc1C (stereo not given),,"inconclusive: 14.1 µM [inhibitor, full curve, poor fit]"
COc1ccc2[nH]c3c(=O)n(Cc4ccc(C(=O)N5CCCC5)cc4)c(=S)[nH]c3c2c1,,active: 6.31 µM
CC(C(=O)O)N1C(=O)/C(=C/C=C/c2ccco2)SC1=S (stereo not given),,active: 3.16 µM
COc1ccc(C(=O)N2CC3(C)CC2CC(C)(C)C3)cc1OC (stereo not given),,"inconclusive: 89.1 µM [inhibitor, single point]"
O=Cc1ccc(O)c2ncccc12,,active: 2.82 µM
COc1cccc(-n2c(-c3ccc(Cl)cc3)cc3c2CC(C)(C)CC3=O)c1,,active: 8.91 µM
C#CCOCCOCCOCCNc1nc(N2CCN(C(=O)C([C@@H](C)O)n3cc([C@@H](N)CCCCN)nn3)CC2)nc(N2CCN(C(=O)[C@H](CC(N)=O)n3cc(C(N)[C@@H](C)CC)nn3)CC2)n1 (stereo not given in full),,"inconclusive: 79.4 µM [inhibitor, single point]"
CC(C)N1CCC(=NNc2ccc(S(=O)(=O)N3CCOCC3)cc2[N+](=O)[O-])CC1,,"inconclusive: 39.8 µM [inhibitor, partial curve]"
COc1ccc(-c2csc(Nc3ccc(O)cc3)n2)cc1,,"inconclusive: 14.1 µM [inhibitor, full curve, poor fit]"
COc1cccc(CN2CC(C(=O)NCc3cnn(C)c3)CCC2=O)c1 (stereo not given),inactive: -2.08%,
Cc1ccc(C(=O)n2ncn(C)c2=S)cc1,,"inconclusive: 39.8 µM [inhibitor, single point]"
COc1ccc(C(=O)N/C(=C/c2cccnc2)C(=O)Nc2cccc(C(C)=O)c2)cc1OC,,active: 56.2 µM
CCCCN1C(=N)N([C@@H](C)CN2CCC[C@H]2CN2C(N)=NC[C@H]2CC(C)C)C[C@H]1[C@H](C)CC,,"inconclusive: 79.4 µM [inhibitor, partial curve]"
CC(C)N1CCN(S(=O)(=O)c2ccccc2)c2ccccc21,,"inconclusive: 56.2 µM [inhibitor, partial curve]"
O=C(Nc1cccnc1)c1ccc2nc(-c3ccccc3)c(-c3ccccc3)nc2c1,,"inconclusive: 50.1 µM [inhibitor, partial curve]"
CN(C)CCCN(C(=O)c1ccc([N+](=O)[O-])s1)c1nc2cc3c(cc2s1)OCCO3,,"inconclusive: 12.6 µM [inhibitor, partial curve]"
COc1ccc(NC(=O)C2C3C=CC(C3)C2C(=O)NCc2ccccn2)c(OC)c1 (stereo not given),,active: 50.1 µM

SMILES,"activity change, negative = inhibition",Potency
CCOc1ccccc1C(=O)NC1(C(F)(F)F)NC(=O)N(CCc2ccc(OC)c(OC)c2)C1=O (stereo not given),inactive: -25.4%,
O=C1CS/C(=N\C(=O)N2c3ccccc3Sc3ccccc32)N1,,"inconclusive: 79.4 µM [inhibitor, partial curve]"
CC1CCCN(CCOc2cccc(Oc3ccccc3)c2)C1 (stereo not given),,active: 22.4 µM
CCCCOP(=O)(c1ccc(N(C)C)cc1)C(O)c1ccc(N(C)C)cc1 (stereo not given),,active: 5.01 µM
CCOC(=O)N1CCN(C2=C(NS(=O)(=O)c3ccc(NC(C)=O)cc3)C(=O)c3ccccc3C2=O)CC1,,"inconclusive: 79.4 µM [inhibitor, partial curve]"
COc1ccc(C(=O)NC(=S)NNC(=O)Cc2cccs2)cc1,,"inconclusive: 100 µM [inhibitor, single point]"
COCC1CCN(C(=O)C2CCC(=O)N(Cc3cccc(F)c3)C2)CC1 (stereo not given),inactive: -13.9%,
COc1ccc(N2CCN(C(c3ccccc3)c3sc4nc(-c5ccco5)nn4c3O)CC2)cc1 (stereo not given),,"inconclusive: 50.1 µM [inhibitor, partial curve]"
O=C1/C(=C/c2ccncc2)CCc2ccccc21,inactive: -12.3%,
COc1ccc2ccccc2c1/C=N/NC(=O)c1sc(N)c(C#N)c1C,inactive: -10.3%,
COc1ccc(CCC(=O)NCC(c2ccco2)N2CCc3ccccc32)cc1 (stereo not given),,"inconclusive: 44.7 µM [inhibitor, partial curve]"
CCN(CC(=O)Nc1c(C(=O)OC)[nH]c2ccc(C)cc12)c1ccc2c(c1)OCO2,,active: 44.7 µM
CCOC(=O)c1c(-c2ccc(C)o2)csc1NC(=O)CSc1nncs1,,active: 56.2 µM
O=C1C(=O)N(Cc2cccnc2)C(c2ccccn2)/C1=C(/O)c1ccccc1 (stereo not given),,"inconclusive: 50.1 µM [inhibitor, partial curve]"
CCNC(=O)c1nc[nH]c1C(=O)NCC,,active: 39.8 µM
O=C(NCCCn1ccnc1)/C(=C/c1ccco1)NC(=O)c1ccccc1,inactive: -15.5%,
CCN(CC)CCOCCOC(=O)C(CC)(CC)c1ccccc1,,"inconclusive: 89.1 µM [inhibitor, single point]"
CSC1=N/C(=C\c2ccc(C)o2)C(=O)S1,,"inconclusive: 50.1 µM [inhibitor, partial curve]"
CC1(C)CC(=O)c2cc(OCC(=O)NCCCN3CCN(c4ccc(F)cc4)CC3)ccc2O1,,"inconclusive: 44.7 µM [inhibitor, partial curve]"
COC(=O)c1cc(NS(=O)(=O)c2ccc(N3CCCCCC3)c([N+](=O)[O-])c2)cc(C(=O)OC)c1,,"inconclusive: 50.1 µM [inhibitor, partial curve]"
CCN(CC)/[N+]([O-])=N/Oc1cc(O/N=[N+](\[O-])N(C)C)c([N+](=O)[O-])cc1[N+](=O)[O-],,"inconclusive: 56.2 µM [inhibitor, partial curve]"
C/C(=N\NC(=S)NCc1ccccc1)c1ccccc1,,"inconclusive: 44.7 µM [inhibitor, single point]"
Cc1cc(C(=O)O)ccc1-n1c(C)cc(C=C2C(=O)c3ccccc3C2=O)c1C,,"inconclusive: 50.1 µM [inhibitor, partial curve]"
COc1ccccc1OCC(=O)NCCCn1ccnc1,inactive: -32.7%,

SMILES,"activity change, negative = inhibition",Potency
Cc1ccc(C)c(-n2c(SCC(=O)N3CCCC3)nnc2-c2ccccn2)c1,,"inconclusive: 89.1 µM [inhibitor, single point]"
COCc1nnc(NC(=O)CSCc2ccccc2)s1,inactive: -14.1%,
COc1ccc(NC(=O)Nc2cccc(NC(C)=O)c2)c(OC)c1,inactive: -7.38%,
CC(=O)Nc1ccc(NC(=O)Cc2ccc(S(=O)(=O)N3CCCCC3)s2)cc1,,"inconclusive: 70.8 µM [inhibitor, single point]"
CCN(CC)C(=O)[C@H]1C[C@H](CC(=O)NCCN2CCOCC2)C(=O)N2CCc3c([nH]c4cc(-c5ccco5)ccc34)[C@]12C,inactive: -33.6%,
Cc1ccc(N(CC(=O)Nc2ccccc2-c2ccccc2)S(=O)(=O)c2ccccc2)c(C)c1,inactive: -14.3%,
Clc1ccc(CNc2ccc(CNc3ncn[nH]3)cc2)c(Cl)c1,,"inconclusive: 63.1 µM [inhibitor, single point]"
O=C(O)c1cc2nccc(-c3ccco3)n2n1,,active: 89.1 µM
S=C(NCc1ccccc1)NCc1cccc(CNC(=S)NCc2ccccc2)c1,,"inconclusive: 11.2 µM [inhibitor, partial curve]"
Cc1cc(=O)[nH]c(N/N=C/c2ccccn2)n1,,"inconclusive: 70.8 µM [inhibitor, single point]"
COc1ccc(-c2nc(C#N)c(N3CCc4ccccc4C3)o2)cc1OC,,"inconclusive: 8.91 µM [inhibitor, full curve]"
Cc1ccc(C(=O)Nc2cc(-c3nc4ncccc4o3)ccc2C)c(C)c1,inactive: -31.3%,
CCc1ccc(CNC(=O)CCCN2C(=O)CCn3nc(-c4cccn4C)cc32)cc1,,"inconclusive: 50.1 µM [inhibitor, partial curve]"
COc1ccc(N2CCN(C(=O)c3ccc(CNS(=O)(=O)c4cccc(OC)c4)cc3)CC2)cc1,,"inconclusive: 56.2 µM [inhibitor, partial curve]"
Cc1ccc(NC(=O)CC(=O)c2ccc([N+](=O)[O-])cc2)cc1S(=O)(=O)Nc1cccc(Cl)c1,,"inconclusive: 31.6 µM [inhibitor, partial curve]"
Nc1ccc(OCc2ccccc2)cc1,,"inconclusive: 44.7 µM [inhibitor, partial curve]"
Cc1ccccc1N(CC(=O)N/N=C/c1ccc(N(C)C)cc1)C(=O)c1ccccc1,,active: 20 µM
O=C(N/N=C/c1cc(Cl)ccc1O)c1cccnc1,,active: 44.7 µM
O=C(OCc1nnc(-c2ccccc2)o1)c1cc(S(=O)(=O)N2CCOCC2)c(Cl)cc1Cl,,"inconclusive: 3.16 µM [inhibitor, single point]"
O=C(Cc1ccccc1F)Nc1cc(S(=O)(=O)N2CCCC2)ccc1Cl,inactive: -4.55%,
COc1ccccc1OCC(=O)Nc1cc2c(cc1C(=O)O)OCCCO2,,active: 79.4 µM
COc1cccc(C2c3c(ncn(-c4ccc(Br)cc4)c3=N)Oc3ccc4ccccc4c32)c1 (stereo not given),,"inconclusive: 44.7 µM [inhibitor, partial curve]"
